According to the supplement of paper PMC3334620:
In all, about 33,000 sequences were measured (“E-score (-0.5 to 0.5)”: median about -0.041, highest 2% from about 0.37 on). Some of the results follow.

Target: T1, Ecm22 (UniProt Q05958)
T1 sequence: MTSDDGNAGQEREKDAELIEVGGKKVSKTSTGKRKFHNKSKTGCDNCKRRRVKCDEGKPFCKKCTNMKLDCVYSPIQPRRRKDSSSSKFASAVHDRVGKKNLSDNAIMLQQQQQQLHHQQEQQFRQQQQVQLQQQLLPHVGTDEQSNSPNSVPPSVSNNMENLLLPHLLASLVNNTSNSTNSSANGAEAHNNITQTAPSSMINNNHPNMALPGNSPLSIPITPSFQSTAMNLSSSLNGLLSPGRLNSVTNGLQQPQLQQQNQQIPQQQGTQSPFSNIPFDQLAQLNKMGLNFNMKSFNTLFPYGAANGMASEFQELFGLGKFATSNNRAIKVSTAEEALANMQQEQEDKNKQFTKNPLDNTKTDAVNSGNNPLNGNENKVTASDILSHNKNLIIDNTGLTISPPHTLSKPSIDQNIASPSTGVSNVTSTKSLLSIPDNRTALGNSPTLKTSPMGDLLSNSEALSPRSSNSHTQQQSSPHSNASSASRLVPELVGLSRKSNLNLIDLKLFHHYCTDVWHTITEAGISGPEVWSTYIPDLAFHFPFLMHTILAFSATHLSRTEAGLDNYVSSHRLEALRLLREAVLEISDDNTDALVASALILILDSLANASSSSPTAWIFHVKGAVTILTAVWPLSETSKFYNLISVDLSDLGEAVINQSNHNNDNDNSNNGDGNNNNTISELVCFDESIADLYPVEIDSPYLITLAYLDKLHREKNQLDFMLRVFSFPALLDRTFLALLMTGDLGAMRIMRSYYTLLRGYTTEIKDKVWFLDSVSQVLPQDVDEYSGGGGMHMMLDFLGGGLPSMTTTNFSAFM
Assay: PBM E-score (8-mer binding enrichment) (E-score (-0.5 to 0.5)); higher = stronger / more preferred TF binding; most listed sequences are background and not binding sites
Conditions: protein concentration: 200 nM; construct: GST-full length
In short: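 Each ungapped eight-base word and its reverse complement, pooled, received an E-score from the Universal PBM Analysis Suite. Underlying scans, normalised with masliner, recorded fluorescent anti-GST bound to GST-tagged yeast transcription factors. These were applied at about 100-200 nM to universal all-10-mer Agilent arrays double-stranded by primer extension.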

Sequence	PBM E-score
CGTAATGC	0.162
AGAAGCAT	-0.152
CGCTACAG	-0.099
AAAGCGAT	0.139
ATGCTACC	-0.113
GGAAAAAA	0.126
CAAGACGC	-0.0301
ATTCGATA	-0.0318
TCCGGTAA	0.134
GAGAAAAA	0.00044
CACCAAGG	-0.286
ACCCTAAA	0.0255
TATTAGAA	0.092
GCCGCAAA	0.0548
AGGAAAAA	0.00279
CCCATGGG	-0.0959
GTATACTA	0.173
ACCATGGG	-0.239
GCAGGTAC	0.1
ACCCACAG	-0.0711
CAGACGTC	-0.239
CAGAAATC	-0.19
CGCGAATA	0.225
CCGTGAAC	-0.0691
CGATTTTA	0.0853

Sequence	PBM E-score
CAGCGGGA	-0.188
ACGATTTC	0.236
AGATCGAT	-0.201
AGAAAATC	-0.00706
ACACACCG	0.0636
AGTCTCTG	-0.131
ATCAAGTC	-0.00766
ATACGGAC	0.362
AAGAAAAC	0.0702
ATATCGAA	0.0195
ACGATCTC	0.239
AAGGTTCT	-0.155
CCTGGTTC	-0.101
CTATGTCC	-0.25
CCTAGGCA	-0.218
ATGTACTG	-0.091
ACGTTAGC	0.0731
CAGTAAAC	0.195
CTCAGGTA	-0.131
ACGGCTCC	0.126
ATTAATAC	0.0519
ACAACGAC	0.295
GAGGCCTC	0.0714
ATATTAAA	0.159
CGGTACCA	-0.0083

Sequence	PBM E-score
CTTTACGA	0.464
AAAAAGGA	-0.0219
CCTGAAGC	-0.283
TGTTAAAA	-0.0602
ACGCAGGC	-0.00144
TAAGGTGA	-0.0341
AAGTCCTG	-0.321
CGAAGTAG	0.126
CTCGTAAG	0.44
GCATGTAC	0.17
GGTGAGCA	-0.129
CATAGCAA	-0.196
AGGCGGAT	-0.21
GCGGTGGA	0.0731
CCTTACTC	-0.0985
ATTGCGAC	0.179
CACTTCTC	0.0323
CGGCTGAG	-0.121
CTCCCGAG	0.163
CGAGTGCA	0.128
AGCTTATC	-0.056
GGGAACCA	-0.215
GAAAGGCC	-0.122
GGGGACTA	-0.242
CTGGTACA	-0.0942

Sequence	PBM E-score
CAAAACAG	-0.0366
AACTGTTG	-0.219
GATTCCCC	-0.205
GAAGTCGA	-0.104
ATGGTTTG	-0.14
AAGCCGCA	0.0536
ATAGCAGA	-0.147
AGCCAAGC	-0.174
GCTCTCAA	-0.0248
TGCTCCCA	-0.0821
GGGTGCCA	-0.0378
CTAGGTCC	-0.0845
AGCCACCG	-0.0608
GAACACCC	-0.121
GCGACAGA	0.0945
TTGTACAA	-0.0655
AGGTAAAA	-0.0767
CTACAAAA	-0.0702
GCAGCTGA	-0.0826
AATCTTTG	-0.0601
AATTTATC	0.17
AGTAAAGA	-0.225
ACCTGGAC	-0.232
AATCGGAG	-0.0617
CTAGATAC	0.226

Sequence	PBM E-score
CAAGACAA	-0.127
AAAACTAT	-0.0456
ATGGCCCG	-0.0899
AAGGCTCA	-0.26
AAGTTGCC	-0.0243
GCTGACAC	-0.09
ACATCATG	-0.209
AGGGGTCA	-0.179
CATTCGTA	0.407
TACTCTAA	-0.0365
AGCGGGGG	-0.308
CAGGCGAA	-0.0615
AATAGTAA	-0.12
CGGCGAGC	0.175
GCGATAAA	0.154
ACTGGGAG	-0.206
CCTGCAAG	-0.0692
CGAAGACA	0.146
AGGCACTG	-0.151
AGAGCCCT	-0.155
TGACGGAA	0.0325
AACGCGCT	0.0935
CCACTGGC	-0.267
GCAAATTA	0.012
CACGGCTA	-0.118

Sequence	PBM E-score
GCGAGATA	0.273
AACTATCG	0.176
TCGGACCA	0.109
CTATGACC	0.0115
AGGGCTAA	-0.225
ACTAGCTA	-0.00683
ACGAGAGC	0.399
CGATCAAG	-0.12
AGTTACTA	0.0475
GACTAGGA	-0.262
GAGCAACA	-0.138
CTGGCCTA	-0.168
AGTTCTTC	0.049
ACTACACG	0.17
ATCTTTTG	0.122
GCGCTTTA	0.0513
CCTTTCGA	0.142
CGCTTCAA	0.099
GAAAGCAC	0.108
ATGAATCG	0.149
ACACTTAG	-0.14
GCAGTGGA	-0.126
GATTACGA	0.336
AGCGGGAC	-0.137
GACTGCCC	-0.176

Sequence	PBM E-score
GATGGAGC	-0.0438
AAGGCTAA	0.00013
CCCAGATC	-0.128
GTTTGTAA	0.12
ACATTCTG	-0.0862
CAAGAGTC	-0.0935
GCATAACC	-0.00363
ATACCCGG	-0.0336
CAGACAAA	0.0367
CACTGGGG	-0.267
ATGGAAAC	-0.128
CCTGCAGA	-0.0769
GCGTCGTA	0.471
AACCGCCC	-0.0423
CACAATGC	-0.161
CTACACAA	0.151
GGCACCCA	-0.168
CCTCCATA	-0.058
ATAGCCGG	-0.08
CCTAACTA	-0.133
CGCTCCCA	0.0876
CGAGTTAG	0.205
